Hit rate of the full screen: of about 52,000 compounds, about 1,700 (3.3%) were called active. Cut-off read from the data, not from the text of the source: active = survival mostly below about 52% (no sharp cut-off); inactive = mostly above about 56%. Some of the results follow.

The test relates to Wild type. Description: growth inhibition of S. aureus wild type versus tarO mutant, primary screen, teichoic acid synthesis inhibitors, RN4220, OD600 (AID 463173). The settings on record: S. aureus RN4220 wild type/DeltatarO growth, OD600, 18 h, stronger effect = lower value, screened at 18.75 µg/mL (by protocol).
`COc1ccc(Cl)cc1NC(=O)c1sc2nc(-c3ccc(OC)c(OC)c3)ccc2c1N`: the survival was inactive: 142%.

As for `O=C(NC1CCCC1)c1ccc(CSc2nc3cccnc3n2Cc2ccccc2)cc1`, the survival was inactive: 69%. Take `O=C(COc1ccc(Cl)cc1)Nc1ccc(-c2nc3cc(Cl)ccc3o2)c(O)c1`: the survival was inactive: 88%.

On to `COC(=O)c1sc2cccc(F)c2c1S(=O)(=O)Nc1cc(C)c(Cl)cc1OC`, for which the survival was inactive: 85%. Turning to `CCc1cccc(C)c1NC(=O)CN1C(=O)c2ccccc2Sc2ncccc21`, the survival was inactive: 88%.

As for `O=S(=O)(c1ccc(Cl)c2ccccc12)N1CCCC1`, the survival is inactive: 109%. As for `CCCNC(=O)C1CCC(Cn2c(=O)c3sccc3n(CC(=O)N3CCCC3)c2=O)CC1` (stereo unspecified), the figure is inactive: 93%; as for `CCCNC(=O)CN1C(=O)c2c(c3ccccc3n2C)C1c1ccc(OC)cc1` (stereo unspecified), inactive: 82%; as for `CCCC(=O)Nc1sc2c(c1C(N)=O)CCC2`, inactive: 115%. As for `COc1ccc(CNC(=O)c2cc3oc4ccccc4c3n2C)cc1OC`, the figure is inactive: 64%.

Turning to `Cc1c(C(=O)Nc2cccc(C#N)c2)sc2nc3n(c(=O)c12)CCCCC3`, the survival was inactive: 78%.

As for `CCc1ccc(S(=O)(=O)c2nnn3c2nc(N2CCC(C(N)=O)CC2)c2cc(Cl)ccc23)cc1`, the survival was inactive: 69%. Take `CC1CN(C(=O)N2CCC(C(=O)NCc3ccco3)CC2)c2ccccc2O1` (stereo unspecified): the survival was inactive: 83%. The figure for `O=C(Nc1nc2ccccc2n1CCOc1ccccc1Cl)c1ccccc1` is inactive: 36%; for `Cc1cccc(CN2C(=O)c3ccccc3Sc3ccc(C(=O)NCCCN4CCOCC4)cc32)c1` it is inactive: 32%. As for `CC1CCN(c2nc3ccccc3nc2C(F)(F)F)CC1`, the figure is inactive: 78%. As for `Cc1ccc2ncc(C(=O)c3ccc(C)c(C)c3)c(S(=O)(=O)c3ccccc3)c2c1`, the figure is inactive: 95%; as for `CCOc1cccc(C2c3c(oc4ccc(F)cc4c3=O)C(=O)N2c2cc(C)ccn2)c1` (stereo unspecified), inactive: 128%; as for `O=C(CN(C(=O)c1ccc(Cl)nc1)c1ccc2c(c1)OCCO2)NCc1ccco1`, inactive: 91%.

Take `C=CCN1C(=O)C2C(C(=O)NC)C3C=CC2(O3)C1C(=O)NC1CCCCC1` (stereo unspecified): the survival is inactive: 105%. The figure for `CCN(CC)S(=O)(=O)c1nnc(NC(=O)c2ccc(C)cc2)s1` is inactive: 67%; for `O=C(NC1CCN(CC(=O)N2CCOCC2)CC1)C1CCCCC1` it is inactive: 97%. As for `O=C(C1CC(c2ccccc2O)=NO1)N1CCCC1` (stereo unspecified), the figure is inactive: 108%. The figure for `COc1ccccc1C1C(C(=O)Nc2ccccc2)=C(C)Nc2nc(-c3ccccc3)nn21` (stereo unspecified) is inactive: 80%; for `CCOc1ccccc1C(=O)N(C)c1ccccc1` it is inactive: 109%. Regarding `COc1ccccc1N1CCN(Cc2nc(-c3cc(OC)c(OC)c(OC)c3)no2)CC1`, the survival was inactive: 120%. As for `CC1CCCCN1CCCNC(=O)Cn1ncc2c3ccccc3n(Cc3ccccc3)c2c1=O` (stereo unspecified), the figure is inactive: 89%.

With `O=c1c2ccccc2nc(SCCN2CCCCC2)n1CC1CCCO1` (stereo unspecified), the survival was inactive: 103%. As for `CC(=O)N1CCc2cc(S(=O)(=O)NC(Cc3ccccc3)C(=O)Nc3cc(C)cc(C)c3)ccc21` (stereo unspecified), the figure is inactive: 75%; as for `COc1ccc(CCN2C(=O)CN(C3CCCCCC3)C(=O)C2c2ccc(Cl)cc2)cc1OC` (stereo unspecified), inactive: 55%. The figure for `Cc1ccc(NC(=O)CSc2nc3n[nH]c(C)c3c(=N)n2-c2ccccc2C)cc1C` is inactive: 90%.

Consider `CCN(Cc1ccccc1)C(=O)c1cn(-c2cccc(OC)c2)c(=O)c2ccccc12`, for which the survival was inactive: 82%.

Consider `Cc1ccc(Cl)cc1N1CCN(C(=O)CCc2nnc3n(C)c(=O)c4ccccc4n23)CC1`, for which the survival was inactive: 76%. The figure for `O=C(Cn1ncc2c3ccccc3n(Cc3ccccc3)c2c1=O)NCCCN1CCCCC1` is inactive: 84%; for `COc1ccc(-c2cc(C(=O)Oc3ccc(C#N)cc3)no2)cc1` it is inactive: 105%.

On to `COc1ccc(CNC(=O)C(CC(C)C)NS(=O)(=O)c2ccc3c(c2)CCN3C(C)=O)cc1` (stereo unspecified), for which the survival was inactive: 79%. The figure for `O=C(O)c1ccc(CN2CCCCC2)cc1` is inactive: 92%. The figure for `C=C(C)c1cccc(C(C)(C)NC(=O)NC2CC(C)(C)NC(C)(C)C2)c1` is inactive: 108%; for `COc1ccc(Nc2nnc(-n3nc(C)cc3C)c3ccccc23)cc1` it is inactive: 89%.

As for `O=C(NCCOCCn1c(=O)oc2ccccc21)Nc1ccc(F)cc1F`, the survival is inactive: 81%.

For the compound `CCCc1cc(=O)[nH]c(SCc2nc(-c3ccccc3)no2)n1`, the survival was active: -2%. `O=S1(=O)c2ccccc2N(Cc2ccc(F)cc2)c2ccccc21`: the survival is inactive: 73%.

Take `CCOC(=O)Cn1nnnc1C(C(C)C)N(Cc1ccc(F)cc1)Cc1cc2cc3c(cc2[nH]c1=O)OCO3` (stereo unspecified): the survival was inactive: 111%.

For the compound `Cc1ccc(C2=NNC(C(O)C(O)C(O)C(O)CO)S2)cc1` (stereo unspecified), the survival is inactive: 105%.

For `CCCSCCCNC(=O)c1sc2nc(C)cc(C)c2c1-n1cccc1`, the survival was inactive: 95%. As for `COc1cccc(NCc2nnc3n2CCCCC3)c1`, the figure is inactive: 83%; as for `Cc1ccc(-c2noc(-c3cccnc3N(C)Cc3ccc(Cl)cc3)n2)cc1`, inactive: 84%; as for `Cc1cccc(NC(=O)CSc2nc3ccc(NC(=O)CCc4ccccc4)cc3s2)c1`, inactive: 91%. The figure for `Cc1ccc(-c2nc(CS(=O)(=O)CC(=O)N3CCN(c4ccccc4)CC3)c(C)o2)cc1` is inactive: 90%. With `COc1ccc(CNC(=O)c2cc3c(=O)n(Cc4ccc(OC)cc4)ccc3nc2C)cc1`, the survival was inactive: 53%. The figure for `COc1cc(Br)cc2cc(S(=O)(=O)c3ccccc3)c(=O)oc12` is inactive: 72%. The figure for `CCOc1ccc(NC(=O)CN(c2ccc(C)cc2)S(=O)(=O)c2cccs2)cc1` is inactive: 80%. As for `CCCOc1ccc(CN2C(=O)C(=O)c3cccc(C)c32)cc1`, the figure is inactive: 38%. In the case of `Cc1ccc(-n2nc(C)c3c(C)c(CCC(=O)NCc4ccc(Cl)cc4)c(C)nc32)cc1`, the survival was inactive: 102%. As for `COc1cccc(CNC(=O)c2ccc3nc(CCc4ccccc4)oc3c2)c1OC`, the survival is inactive: 89%.

For `O=C(NC12CCC(O)C(SC1)C2O)c1ccccc1` (stereo unspecified), the survival is inactive: 119%. Consider `CCc1cccc(C)c1Nc1c(-c2ccc(N(C)C)cc2)nc2cnccn12`, for which the survival was inactive: 42%. As for `CCOc1ccc(CNCCSc2nnnn2C)cc1`, the figure is inactive: 73%; as for `CCc1ccc(C(=O)c2cn(CC(=O)Nc3cc(OC)cc(OC)c3)c3ccc(CC)cc3c2=O)cc1`, inactive: 128%. As for `COC(=O)c1ccccc1NC(=O)Cn1c(=O)n(-c2ccc(C)cc2)c(=O)c2ccccc21`, the survival is inactive: 82%. As for `COc1ccc(OCC(=O)Nc2cc(-c3nc4ccccc4o3)ccc2Cl)cc1`, the figure is inactive: 104%; as for `COc1ccc(CNCC(O)c2nnn(C)n2)cc1OC` (stereo unspecified), inactive: 108%; as for `CCOc1ccc(NC(=O)Cn2nc(CC)n3c(cc4sccc43)c2=O)cc1`, inactive: 88%. The figure for `Cc1ccc2c(c1)c1c(c(=O)n(-c3cccc(Cl)c3)c(=O)n1CC(N)=O)n2C` is inactive: 64%; for `COc1cc(Nc2nc3c(S(=O)(=O)c4cccc(Cl)c4)nnn3c3ccsc23)cc(OC)c1` it is inactive: 126%.

With `O=C(Nc1nnc(C(F)(F)F)s1)c1ccccc1`, the survival is inactive: 74%. As for `CCN(CC(O)COc1ccc(OCC(O)CN(CC)C2CCCCC2)cc1)C1CCCCC1` (stereo unspecified), the figure is inactive: 109%; as for `Cc1ccc(NC(=O)CSc2nc3nccnc3c(=O)n2CCc2c[nH]c3ccccc23)cc1C`, inactive: 77%; as for `CCC(=O)N1CCc2cc(S(=O)(=O)NCCC(=O)Nc3ccc(C)cc3C)ccc21`, inactive: 84%. The figure for `O=C1Nc2ccccc2C1Cc1ccc(Br)cc1` (stereo unspecified) is inactive: 81%. The figure for `Cc1ccc(NC(=O)CN2C(=O)c3ccccc3Sc3ccc(C(=O)N4CCOCC4)cc32)cc1C` is inactive: 72%; for `CC1CCc2noc(NC(=O)c3ccc([N+](=O)[O-])cc3)c2C1` (stereo unspecified) it is inactive: 113%. Regarding `Cc1ccnc(SCC(=O)Nc2ccccc2)n1`, the survival is inactive: 102%. As for `Cc1ccccc1OCCSc1nc2ccc(NC(=O)c3ccco3)cc2s1`, the figure is inactive: 57%; as for `COc1ccc(C2C(C#N)=C(N)Oc3cc4c(cc32)OCO4)cc1` (stereo unspecified), inactive: 110%; as for `Cc1ccccc1-n1nc(C)c2c1CC(C)(C)CC2=O`, inactive: 112%. As for `CCOc1ccc2nc(Cl)c(CN(Cc3ccco3)C(=O)c3ccco3)cc2c1`, the figure is inactive: 120%. As for `CC(=O)c1cccc(NC(=O)c2cc3sc(Cl)cc3n2C)c1`, the figure is inactive: 95%. In the case of `Oc1c(C(c2ccc(Cl)cc2Cl)N2CCN(Cc3ccccc3)CC2)sc2nc(-c3ccco3)nn12` (stereo unspecified), the survival was inactive: 73%. For the compound `CCC(Sc1nc2ccncc2[nH]1)C(=O)Nc1cc(C)ccc1C` (stereo unspecified), the survival is inactive: 125%. As for `CCCn1c(=N)c(C(=O)NCc2ccco2)cc2c(=O)n3cc(C)ccc3nc21`, the figure is inactive: 69%; as for `Cc1ccc(CNC(=O)Cn2ccn(-c3ccc(F)c(F)c3)c(=O)c2=O)cc1`, inactive: 78%. In the case of `CCn1cc(/C=C(\NC(=O)c2ccccc2Cl)C(=O)NCCCn2ccnc2)c2ccccc21`, the survival was inactive: 121%.

As to `Cc1ccc(C2N3CC4(C)CN2CC(c2ccccc2)(C3)C4=O)cc1` (stereo unspecified), the survival was inactive: 93%. The figure for `COCCNC(=O)CCCn1c(SCc2ccccc2C)nc2c(sc3ccccc32)c1=O` is inactive: 146%; for `CCC(=O)Nc1ccc(-c2nc3ncccc3o2)cc1C` it is inactive: 85%; for `CCOc1ccc(C(=O)Nc2ccc(C(=O)OCc3cc(=O)n4c(C)csc4n3)cc2)cc1` it is inactive: 85%. Turning to `Cc1ccc(CNC(=O)c2ccc(N3Cc4ccccc4Oc4ncccc43)s2)cc1`, the survival is inactive: 90%. As for `CCOCCCNC(=O)C(c1ccc(Cl)cc1)N(Cc1ccc2c(c1)OCO2)C(=O)c1ccc(NC(C)=O)cc1` (stereo unspecified), the figure is inactive: 117%; as for `COc1ccccc1CNS(=O)(=O)c1c(C)nc2sc(C)cn2c1=O`, inactive: 83%. As for `O=C(O)c1ccc2c(c1)N(Cc1ccc(F)cc1)C(=O)c1ccccc1S2=O` (stereo unspecified), the figure is inactive: 82%.

For the origin of these results see PubChem BioAssay AID463173 (ICCB-Longwood Screening Facility, Harvard Medical School, 2010).
